# Out of some 420,000 compounds screened, about 50,000 (12%) were called active. Inconclusive means that the source gave no clear call. Such entries were picked first, then a sample of the others. Calls come from the whole dose curve; as a rule, active = well fitted inhibition curve with a large enough effect; inconclusive = small, poorly fitted or top-dose-only effect; inactive = flat fitted curve, though single readings scatter. Potencies of inconclusive entries are left out as doubtful fits.
# Test: qHTS for Inhibitors of human tyrosyl-DNA phosphodiesterase 1 (TDP1): qHTS in cells in presence of CPT; note: nearly all actives have a fitted effect of over 55% in size
# Conditions: chicken DT40 Tdp1-/-;hTDP1 cells + 20 nM CPT, ATP luminescence, 48 h; activity change, negative = growth inhibition: at 46.2 µM (top of the series)
# Outline: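 Cell growth measured by CellTiter-Glo luminescence after a minimum 48 h, 37 C compound exposure with 20 nM CPT in Tdp1-knockout DT40 cells stably expressing hTDP1, seeded 400/well; qHTS titration format.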
# % is set by controls: 0 for no effect and ±100 for the full control effect; potency is the fitted concentration of half-maximal effect; tags give direction and shape of the fitted curve.
SMILES,Potency,"activity change, negative = growth inhibition"
CC(C)c1ccc(NC(=O)CN2C(=O)NC3(CCCCCCC3)C2=O)cc1,active: 20.6 µM,
O=S(=O)(NCc1ccccc1)c1ccc(NC(=S)NCc2ccco2)cc1,"inconclusive [inhibitor, partial curve]",
Cc1ccc(C2C(C#N)=C(N)Oc3cc(N)ccc32)cc1 (configuration not stated),inactive,
NC(=O)c1cc(Sc2ccccc2)nc2ccccc12,"inconclusive [inhibitor, single point]",
Cc1cc(N2CCCC2=O)c(N)cc1N,inactive,
COc1ccc(NC(=O)c2cc3c(CO)cnc(C)c3oc2=Nc2cccc(C)c2)c(OC)c1,"inconclusive [inhibitor, single point]",
CC(C)Cc1cc(C(=O)NCCc2ccccc2)no1,inactive,
Cc1cccn2c(=O)nc(SCC(=O)Nc3ccc4c(c3)OCCO4)nc12,inactive,
CC(=O)OC1(C)C=Cc2ccccc2C1=NS(=O)(=O)c1ccccc1 (configuration not stated),"inconclusive [inhibitor, single point]",
O=C(Nc1ccc(N2CCOCC2)cc1)c1cccc(S(=O)(=O)N2CCCCC2)c1,active: 14.6 µM,
COc1nc(-c2ccccc2)ncc1S(=O)(=O)c1ccccc1,"inconclusive [inhibitor, single point]",
CCOc1ccc(N(CC(=O)NC2CCCC(C)C2C)S(=O)(=O)c2c(C)noc2C)cc1 (configuration not stated),"inconclusive [inhibitor, single point]",
O=C1/C(=C/c2cccc(F)c2)Oc2cc(O)ccc21,"inconclusive [inhibitor, single point]",
O=S(=O)(Nc1ccc(Cl)cc1)c1ccc(NS(=O)(=O)c2ccc3c(c2)OCCO3)cc1,"inconclusive [inhibitor, single point]",
COc1ccc(NC(=O)CN(C)C(=O)c2cccc(Oc3ccccc3)c2)cc1,,inconclusive: -31.9% [inhibitor]
Cc1ccc(CN(C(=O)COc2cccc([N+](=O)[O-])c2)c2ccccn2)o1,"inconclusive [inhibitor, single point]",
O=C(NCCOC12CC3CC(CC(C3)C1)C2)c1cccc(Br)c1,"inconclusive [inhibitor, single point]",
COc1ccc(-c2cc3cc(-c4cc(OC)c(OC)c(OC)c4)ccc3o2)cc1,"inconclusive [inhibitor, partial curve]",
COc1ccc(/C=C/c2nnc(NC(=O)COc3cccc(C)c3)s2)cc1,"inconclusive [inhibitor, single point]",
CCOC(=O)c1c(C)[nH]c(C(=O)N/N=C/c2cc([N+](=O)[O-])ccc2O)c1C,active: 6.51 µM,
CNc1nc(N)c([N+](=O)[O-])c(Nc2ccccc2OC)n1,"inconclusive [inhibitor, partial curve, poor fit]",
COc1cc(/C=C2\Oc3ccc(C#Cc4ccc(O)cc4)cc3C2=O)cc(OC)c1,"inconclusive [inhibitor, single point]",
O=C(CCN1CCOCC1)NC1CCCN(Cc2ccccc2F)C1 (configuration not stated),inactive,

SMILES,Potency,"activity change, negative = growth inhibition"
CCOC(=O)c1cccc(NC(=O)C(CC(C)C)N2Cc3ccccc3C2=O)c1 (configuration not stated),"inconclusive [inhibitor, partial curve]",
OC1CC2CCC(C1)N2CCCN1c2ccccc2Sc2ccc(Cl)cc21 (configuration not stated),active: 23.1 µM,
COc1cccc(NC(=O)c2ccc(NC(=O)C(C)(C)C)cc2)c1,"inconclusive [inhibitor, single point]",
O=C(Cc1ccccc1Cl)Nc1cccc(S(=O)(=O)N2CCCCCC2)c1,inactive,
Cc1ccc(C)c(-n2cc(CNCCc3cnccn3)c(-c3ccccc3)n2)c1,"inconclusive [inhibitor, single point]",
COc1cccc(C(=O)N(C)c2nnc(-c3ccncc3)s2)c1,"inconclusive [inhibitor, partial curve, poor fit]",
O=S(=O)(c1cccs1)N1CCN(c2ccccc2Cl)CC1,"inconclusive [inhibitor, full curve, poor fit]",
O=C(CCl)Nc1nc(-c2ccco2)c(-c2ccco2)s1,"inconclusive [inhibitor, single point]",
COCCCNC(=O)COc1cc2c(c3oc(=O)c(C)c(C)c13)CCC(C)(C)O2,"inconclusive [inhibitor, single point]",
Cc1ccc(Nc2nnc(SCc3cc(=O)n4ccsc4n3)s2)c(C)c1,inactive,
COc1ccc(/C=N/Nc2nncn2N)cc1Br,"inconclusive [inhibitor, single point]",
C=CCn1c(SCC(=O)Nc2ccc3c(c2)OCO3)nnc1-c1cc(Br)ccc1O,"inconclusive [inhibitor, single point]",
Cc1ccc(S(=O)(=O)N2CCN(C(=O)c3cc4c(s3)CCC(C)C4)CC2)cc1 (configuration not stated),"inconclusive [inhibitor, single point]",
CCNc1nc(NCC)nc(N(C)N)n1,"inconclusive [inhibitor, single point]",
COc1cc(-c2noc(-c3ccc(NCc4cccnc4)c([N+](=O)[O-])c3)n2)cc(OC)c1OC,active: 7.31 µM,
COc1ccc(N2CCN(CCNC(=O)Nc3cc(Cl)ccc3OC)CC2)cc1,"inconclusive [inhibitor, single point]",
S=c1[nH]nc(CSCc2ccccc2Cl)n1C1CCCCC1,"inconclusive [inhibitor, single point]",
COc1ccc(-n2c(=O)c(C)nc3cnc(Oc4cccc(Cl)c4)nc32)cc1,"inconclusive [inhibitor, single point]",
N=c1c2c(ncn1CCN1CCOCC1)Oc1ccc3ccccc3c1C2c1ccccc1 (configuration not stated),inactive,
COc1ccc(N2C(=O)N3[C@H](c4ccc(Cl)cc4)[C@@H]4C(=O)N(C5CCCCC5)C(=O)[C@@H]4[C@]3(C)C2=O)cc1,"inconclusive [inhibitor, single point]",
N#C/C(=C/c1cn(Cc2ccc(F)cc2)c2ccccc12)C(=O)Nc1cccc(Cl)c1,"inconclusive [inhibitor, single point]",
CCn1c2ccccc2c2nnc(SCCN3CCCCC3)nc21,active: 25.9 µM,
O=C(CSc1nccn1-c1ccccc1)Nc1nc2ccccc2s1,"inconclusive [inhibitor, single point]",

SMILES,Potency,"activity change, negative = growth inhibition"
CCOc1ccc(CCNC(=O)CCCn2nc(C)c3sc4ccccc4c3c2=O)cc1OCC,active: 23.1 µM,
COc1ccc(-n2c(COc3ccc(Cl)cc3)nnc2SCc2ccc(C#N)cc2)cc1,"inconclusive [inhibitor, single point]",
CC(=O)Nc1ccc(C(=O)OCC(=O)Nc2ccccc2Sc2ccccc2)cc1,"inconclusive [inhibitor, single point]",
CCOc1ccc(CNC(=O)CCC(=O)N2CC(C)Sc3ccccc32)cc1 (configuration not stated),"inconclusive [inhibitor, single point]",
COC(=O)[C@@]1(Cc2ccccc2)[C@H]2C(=O)N(Cc3ccccc3)C(=O)[C@H]2[C@H]2CN=C(SCC3CC3)N21,"inconclusive [inhibitor, single point]",
C[C@@H]1C(c2ccccc2)=NN(c2ccc(Br)cc2)[C@H]1C(=O)N1CCOC1=O,inactive,
CN(Cc1cc(Cl)cc(Cl)c1)CC(C(=O)c1ccccc1)c1ccccc1 (configuration not stated),active: 6.51 µM,
c1ccc(CNc2nc(-c3cccs3)nc3ccccc23)nc1,"inconclusive [inhibitor, single point]",
CCCCNS(=O)(=O)c1ccc2nc(-c3cccnc3)cc(C(=O)NCC(OC)OC)c2c1,inactive,
O=C(NC(=S)Nc1cccc(Cl)c1N1CCCC1)c1ccc(-c2cccc([N+](=O)[O-])c2)o1,"inconclusive [inhibitor, single point]",
CC1(C(=O)Nc2ccc3c(c2)OCCO3)CCN1C(=O)CC1CCCC1 (configuration not stated),"inconclusive [inhibitor, partial curve]",
CCOC(=O)N1CCC(NC(=O)c2ccc3c(c2)N=C(C)c2c(C)ccc(C)c2S3)CC1,active: 2.06 µM,
CCOc1cc(/C=N\NC(=O)C2C(=O)NCC2c2ccccc2)ccc1OC (configuration not stated),inactive,
O=C(CSc1nnc(CNC(=O)c2ccc(F)cc2)o1)Nc1ccc2c(c1)OCCO2,inactive,
Cc1cc(C)n2cc(CSc3nnnn3-c3ccccc3C)nc2n1,"inconclusive [inhibitor, single point]",
O=C(OCC(=O)N1CCCC1)c1c2c(nc3ccccc13)CCCCC2,"inconclusive [inhibitor, single point]",
CC(=O)Oc1ccc(Cn2c(C)c(C(=O)NCc3ccc(C#N)cc3)sc2=O)cc1,"inconclusive [inhibitor, single point]",
COc1ccc(OC)c(CN2CCN(C(=O)c3cccc(S(=O)(=O)Nc4ccc(F)cc4)c3)CC2)c1,"inconclusive [inhibitor, single point]",
COC(=O)COc1cccc(NC(=O)c2ccc(Cl)cc2)c1,"inconclusive [inhibitor, single point]",
O=C(CCCn1c(=S)[nH]c2cc3c(cc2c1=O)OCO3)N1CCN(c2ncccn2)CC1,"inconclusive [inhibitor, full curve, poor fit]",
Cc1ccc(CC(=O)Nc2ccc(Cl)cn2)cc1,inactive,
